Laboratory results from PubChem BioAssay AID720709 (National Center for Advancing Translational Sciences (NCATS), 2013).
Among all 360,000 compounds or so, about 520 (0.14%) were called active. This list was built around the results that the source calls inconclusive (neither active nor inactive); the mix of calls is not that of the screen. Calls come from the whole dose curve; as a rule, active = well fitted inhibition curve with a large enough effect; inconclusive = small, poorly fitted or top-dose-only effect; inactive = no such curve, though single readings can be large or run the other way. No potency is given beside an inconclusive call; the fits are too rough.

target: Rap guanine nucleotide exchange factor 3 (Homo sapiens) (UniProt O95398); assay: qHTS for Antagonist of cAMP-regulated guanine nucleotide exchange factor 3 (EPAC1): primary screen; conditions: EPAC1 GEF assay, Rap1b-BODIPY-GDP exchange fluorescence; activity change, negative = inhibition: at 115 µM (top of the series); note: nearly all actives have a fitted effect of over 50% in size;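 for activity change, negative = inhibition: plate controls were vehicle for no effect and positive control for full effect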
Potency is the fitted concentration of half-maximal effect; tags give direction and shape of the fitted curve.

Sequence of UniProt O95398 (O95398 whole entry, looked up): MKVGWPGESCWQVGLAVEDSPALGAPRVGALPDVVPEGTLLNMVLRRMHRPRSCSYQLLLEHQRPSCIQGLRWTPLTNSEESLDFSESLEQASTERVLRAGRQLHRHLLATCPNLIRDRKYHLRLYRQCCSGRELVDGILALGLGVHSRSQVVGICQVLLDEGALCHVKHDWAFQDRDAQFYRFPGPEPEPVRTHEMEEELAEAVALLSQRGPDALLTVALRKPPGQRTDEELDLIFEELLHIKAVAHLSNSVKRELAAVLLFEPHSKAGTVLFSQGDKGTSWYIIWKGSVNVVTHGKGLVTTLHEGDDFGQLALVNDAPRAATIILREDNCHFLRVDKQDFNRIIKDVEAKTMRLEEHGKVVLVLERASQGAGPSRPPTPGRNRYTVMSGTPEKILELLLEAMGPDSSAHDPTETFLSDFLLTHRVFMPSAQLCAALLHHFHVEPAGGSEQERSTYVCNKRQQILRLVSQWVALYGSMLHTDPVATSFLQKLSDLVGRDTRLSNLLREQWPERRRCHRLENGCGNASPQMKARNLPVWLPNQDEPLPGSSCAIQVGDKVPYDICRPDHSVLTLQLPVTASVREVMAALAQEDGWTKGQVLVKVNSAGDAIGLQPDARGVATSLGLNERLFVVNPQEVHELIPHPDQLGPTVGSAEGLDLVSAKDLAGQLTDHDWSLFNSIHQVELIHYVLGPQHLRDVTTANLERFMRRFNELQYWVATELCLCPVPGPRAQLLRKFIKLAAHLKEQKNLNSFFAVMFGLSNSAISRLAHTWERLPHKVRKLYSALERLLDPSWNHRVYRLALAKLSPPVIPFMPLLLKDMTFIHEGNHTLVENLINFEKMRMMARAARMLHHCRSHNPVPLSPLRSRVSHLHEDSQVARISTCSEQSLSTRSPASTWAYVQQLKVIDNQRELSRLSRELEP

Structure (SMILES)	activity change, negative = inhibition	Potency
CCc1cccc(NC(=O)COC(=O)/C=C/c2cccs2)c1	inactive: -15%	–
CCOc1ccc2nc(N3C(=O)C(O)=C(C(=O)c4ccco4)C3c3ccco3)sc2c1 (configuration not stated)	inactive: 3.43%	–
COc1cc2c3c(c1)C(C)CC(C)(C)N3C(=O)C2=O (configuration not stated)	–	inconclusive [inhibitor, single point]
Cc1ccc(S(=O)(=O)N2CCCCC2)cc1NC(=O)COC(=O)Cc1cccc(C(F)(F)F)c1	–	inconclusive [inhibitor, partial curve]
COc1ccc(/[N+]([O-])=C/c2ccoc2)cc1	inactive: -1.7%	–
O=C(CCNC(=O)Cn1ccc2ccccc2c1=O)NCc1ccccn1	–	inconclusive [inhibitor, full curve, poor fit]
O=C(O)c1ccc(N/N=C/c2cccc3nccnc23)cc1	inactive: 3.74%	–
O=c1ccc(-c2nc3ccccc3n2Cc2ccccc2Cl)c[nH]1	–	inconclusive [inhibitor, partial curve]
COc1ccc(C(=O)NCCCOC(=O)c2ccc(OC)cc2)cc1	–	inconclusive [inhibitor, single point]
COc1ccc(C(=O)OCC(=O)Nc2ncc([N+](=O)[O-])s2)cc1OC	–	inconclusive [inhibitor, single point]
CCOC(=O)N1CCN(C(=O)CN(Cc2ccc(Cl)cc2)S(=O)(=O)c2ccccc2)CC1	–	inconclusive [inhibitor, partial curve, poor fit]
FC(F)(F)c1cc(-c2ccccc2)nc(N2CCCCCC2)n1	inactive: -8.24%	–
COc1ccc(C(=O)NC(=S)NNC(=O)[C@H]2C[C@@H]2c2ccccc2)cc1OC	–	inconclusive [inhibitor, full curve, poor fit]
CC1(c2nnnn2Cc2ccccc2)CCC(=O)N1CC1CCCCC1 (configuration not stated)	–	inconclusive [inhibitor, single point]
O=C(Nc1ncc2c(n1)CC(c1cccc(Cl)c1)CC2=O)c1ccco1 (configuration not stated)	–	inconclusive [inhibitor, partial curve]
Cc1[nH]c2ccc3c(ncn3CCC#N)c2c1C	inactive: -8.12%	–
CCN(CC)CCOCCOC(=O)C(CC)(CC)c1ccccc1	–	inconclusive [inhibitor, single point]
COc1cccc(Nc2nc(-c3ccccc3O)nc3ccccc23)c1	–	inconclusive [inhibitor, full curve, poor fit]
Cc1ccccc1-c1nc(CSc2nc3c(c(=O)[nH]2)CCC3)c(C)o1	–	inconclusive [inhibitor, single point]
CC(C)C[C@@H]1NC(=O)[C@H](C(C)C)NC(=O)c2cc([N+](=O)[O-])cc(I)c2OCC[C@@H](C(N)=O)NC1=O	–	inconclusive [inhibitor, single point]
Cc1cccc(C(=O)O/N=C/c2ccc(Br)cc2)c1	–	inconclusive [inhibitor, partial curve]
CC(C)(C)NC(=O)CN(CCN1CCOCC1)C(=O)CNS(=O)(=O)c1ccccc1	inactive: 9.52%	–
Clc1ccc(CSc2nnc(-c3ccncc3)s2)cc1	–	inconclusive [inhibitor, full curve, poor fit]

Structure (SMILES)	activity change, negative = inhibition	Potency
C/C=C\C(=O)Nc1cccc(C2=NOC3(C2)C[C@@H](C(N)=O)N(C(=O)CC(c2ccccc2)c2ccccc2)C3)c1 (some centres not stated)	–	inconclusive [inhibitor, single point]
COc1ccc(Nc2nnc(-c3ccc(O)cc3)c3ccccc23)cc1	–	inconclusive [inhibitor, full curve]
CC(=O)c1ccc(S(=O)(=O)N2CCN(c3ccnc4cc(Cl)ccc34)CC2)cc1	inactive: -12.2%	–
COc1ccc(/C=C/C(=O)NNC(=O)c2cc(C)oc2C)cc1	–	inconclusive [inhibitor, partial curve]
Cc1nc2ccc(NS(=O)(=O)c3ccc(F)c(F)c3F)cc2s1	–	inconclusive [inhibitor, single point]
COc1ccc(OC)c(-c2nnc3n2N=C(c2ccc(OC)c(OC4CCCC4)c2)CS3)c1	inactive: -14.9%	–
Cc1ccc(NC(=O)NCCCN2CCCC2=O)cc1	inactive: 0.98%	–
Cc1ccc(C(=O)NCC(=O)OCC(=O)N(CC(C)C)c2c(N)n(Cc3ccccc3)c(=O)[nH]c2=O)cc1C	–	inconclusive [inhibitor, single point]
Cc1cccc(CC(=O)NCC2CCCCC2)c1	inactive: -3.55%	–
COc1ccc2oc(C(=O)CCC(=O)O)c(N)c2c1	–	inconclusive [inhibitor, single point]
CN1CCN(/N=C/c2ccc(N(c3ccccc3)c3ccccc3)cc2)CC1	inactive: -5.91%	–
CCCCC[C@@H]1C=C(C(=O)O)[C@H](c2ccc(Br)cc2)N1S(=O)(=O)c1ccc(C)cc1	–	inconclusive [inhibitor, partial curve]
O=S(=O)(NCCc1c[nH]c2ccccc12)c1ccc(F)cc1	inactive: -14.8%	–
COc1ccc(N2CCN(CCC3Oc4cc([N+](=O)[O-])ccc4NC3=O)CC2)cc1 (configuration not stated)	–	inconclusive [inhibitor, partial curve, poor fit]
Cc1cc(NC(=O)C2CCCN(S(=O)(=O)c3c(C)noc3C)C2)no1 (configuration not stated)	inactive: -4.18%	–
O=C(CN1C(=O)/C(=C\c2ccco2)SC1=S)Nc1ccc(O)cc1C(=O)O	–	inconclusive [inhibitor, partial curve, poor fit]
O=C(NNC(=S)NC(=O)c1ccccc1Cl)c1cccc([N+](=O)[O-])c1	–	inconclusive [inhibitor, single point]
CCC1=NN2C(=N)/C(=C\c3cccn3-c3ccc(OC)cc3)C(=O)N=C2S1	–	inconclusive [inhibitor, partial curve]
CC(=O)Oc1ccc(C(=O)Nc2cccc3c2CCCC3)cc1	–	inconclusive [inhibitor, partial curve]
CCOC(=O)c1c(N)c2cc([N+](=O)[O-])ccc2n1C	inactive: -8.62%	–
CCC(CC)c1nnc(NC(=O)CSCc2c(C)noc2C)s1	–	inconclusive [inhibitor, partial curve, poor fit]
CCOC(=O)CNC(=O)N1CCC(CCC(=O)N(C)Cc2ccccc2)CC1	inactive: -5.59%	–
O=C1NC[C@H](Cc2ccccc2)N(C[C@@H]2CCCN2C[C@H](Cc2ccccc2)N2C[C@H](Cc3ccccc3)N(CCc3ccccc3)C(=O)C2=O)C1=O	–	inconclusive [inhibitor, partial curve, poor fit]

Structure (SMILES)	activity change, negative = inhibition	Potency
C/C(=N\NC(=O)c1cc(-c2cccc([N+](=O)[O-])c2)n[nH]1)c1ccccc1O	–	inconclusive [inhibitor, full curve, poor fit]
COC(=O)c1cc(=O)n(-c2ccccc2)c(=Nc2ccccc2)s1	–	inconclusive [inhibitor, partial curve, poor fit]
COc1ccc(NC(=O)[C@@]2(CC(=O)O)CC(/C=C/c3ccccc3)=NO2)cc1	–	inconclusive [inhibitor, single point]
CNCc1ccccc1Sc1cc(O)ccc1O	inactive: -4.12%	–
Cc1ccc(Cn2nc(C)cc2C(=O)Nc2ccc(Cl)cc2)cc1	inactive: -10.9%	–
COc1ccc(CCNCc2cc3ccc(C)cc3[nH]c2=O)cc1OC	–	inconclusive [inhibitor, single point]
CN(C)CCCN(C(=O)c1cc2cc([N+](=O)[O-])ccc2s1)c1nc2cc3c(cc2s1)OCCO3	–	inconclusive [inhibitor, partial curve]
CC1CN(C(=O)c2ccc(-c3cccc(C(F)(F)F)c3)o2)CC(C)O1 (configuration not stated)	–	inconclusive [inhibitor, full curve, poor fit]
Cc1cc(C)nc(NS(=O)(=O)c2ccc(NC(=O)c3ccc(O)cc3O)cc2)n1	–	inconclusive [inhibitor, partial curve]
COc1cc(/C=C(\C#N)C(=O)c2c[nH]c3ccccc23)cc(OC)c1O	inactive: -21.2%	–
Cc1ccc(N=Cc2sc(O)c3ccccc23)c(C)c1	inactive: -9.39%	–
Cc1ccc(NC(=O)CC2SC(=Nc3ccc(O)cc3)NC2=O)cc1 (configuration not stated)	–	inconclusive [inhibitor, full curve]
C=CCOc1ccc(/C=C2\SC(=S)N(NS(=O)(=O)c3ccccc3)C2=O)cc1	–	inconclusive [inhibitor, partial curve]
COCC(=O)N1CCC(Oc2ccc(C(=O)NC3CCOC(C)(C)C3)cc2)CC1 (configuration not stated)	inactive: -17%	–
CC1CC(=O)C2=C(C1)OC(N)=C(C#N)C2c1coc2ccccc2c1=O (configuration not stated)	–	inconclusive [inhibitor, single point]
[O-]/[N+](=C/c1ccco1)c1ccccc1	–	inconclusive [inhibitor, full curve, poor fit]
C[C@H]1CN([C@@H](C)CO)C(=O)CCCn2nncc2CO[C@H]1CN(C)C(=O)Nc1cccc(Oc2ccccn2)c1	–	inconclusive [inhibitor, single point]
O=C(Nc1cccc(S(=O)(=O)N2CCCC2)c1)c1cc(-c2ccccn2)nc2ccccc12	–	inconclusive [inhibitor, single point]
CCN(Cc1ccc(OC)c(F)c1)C(=O)/C=C/c1ccc(S(=O)(=O)N2CCOCC2)cc1	inactive: -21.4%	–
N=c1c(C(=O)NCc2ccc(F)cc2)cc2c(=O)n3ccccc3nc2n1CC1CCCO1 (configuration not stated)	inactive: -10.4%	–
COc1ccccc1C1CC(c2ccco2)=NN1c1ccccc1 (configuration not stated)	inactive: -12.4%	–
